Test results: the antibiotic and cytotoxicity screens of Wong et al. (2023)
Some of the results follow.

What follows are molecules tested on HepG2 (assay: cytotoxicity call (relative viability < 0.9)). Details: 10 µM.

Question: `CC(=O)NCC(=O)N1C[C@H](N(C)Cc2cncnc2)[C@@H]2OCCC[C@@H]21` was tested. Which cytotoxicity call did it give?
Answer: inactive

Question: For `C[C@H](CO)N1C[C@H](C)[C@H](CN(C)S(=O)(=O)c2cn(C)cn2)Oc2cc(C#Cc3ccccc3)ccc2S1(=O)=O`, which cytotoxicity call is on record?
Answer: inactive

Question: Which cytotoxicity call does the source give for `C[C@@H]1CN([C@H](C)CO)C(=O)c2cc(NC(=O)CCC(F)(F)F)ccc2O[C@H]1CN(C)Cc1ccc(-c2ccccc2)cc1` here?
Answer: active

Question: `CN(C)C(=O)C[C@H]1CC[C@H]2[C@@H](COC[C@H](O)CN2S(=O)(=O)c2ccccc2)O1` was tested. Which cytotoxicity call did it give?
Answer: inactive

Question: `CN1CCN(C(=O)C[C@@H]2CC[C@H]3[C@@H](COC[C@H](O)CN3Cc3ccc4c(c3)OCO4)O2)CC1` was tested. Which cytotoxicity call did it give?
Answer: inactive

Question: How did the cytotoxicity call turn out when `CC=Cc1ccc2n(c1=O)C[C@H]1[C@H](CO)[C@@H](C(=O)NCCCN3CCOCC3)[C@@H]2N1Cc1cocn1` was run?
Answer: inactive

Question: How did the cytotoxicity call turn out when `Cc1ccc(S(=O)(=O)Nc2ccc3c(c2)CC(=O)N([C@H](C)CO)C[C@@H](C)[C@H](CN(C)S(=O)(=O)c2cn(C)cn2)O3)cc1` was run?
Answer: inactive
